Source: paper PMC10520260
Results are given in words; binding and its absence hold for the method and conditions named. For part of these data: In cells and extracts the contact can be indirect. Some results given as binding are weak or reduced against the parent protein; the word gives no strength.

T1: b2(1–167)-Tim50(366–476), IMS-targeted PBD of Tim50 (yeast) (UniProt P00175+Q02776)
T1 sequence: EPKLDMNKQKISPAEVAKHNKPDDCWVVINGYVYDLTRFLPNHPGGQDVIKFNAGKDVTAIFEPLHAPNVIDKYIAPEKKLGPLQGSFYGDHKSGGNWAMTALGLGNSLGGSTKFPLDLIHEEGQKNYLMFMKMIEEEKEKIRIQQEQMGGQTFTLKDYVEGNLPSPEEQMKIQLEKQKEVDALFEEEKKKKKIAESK

T2: Tim50(1–476), full-length wild-type Tim50 (yeast) (UniProt Q02776)
T2 sequence: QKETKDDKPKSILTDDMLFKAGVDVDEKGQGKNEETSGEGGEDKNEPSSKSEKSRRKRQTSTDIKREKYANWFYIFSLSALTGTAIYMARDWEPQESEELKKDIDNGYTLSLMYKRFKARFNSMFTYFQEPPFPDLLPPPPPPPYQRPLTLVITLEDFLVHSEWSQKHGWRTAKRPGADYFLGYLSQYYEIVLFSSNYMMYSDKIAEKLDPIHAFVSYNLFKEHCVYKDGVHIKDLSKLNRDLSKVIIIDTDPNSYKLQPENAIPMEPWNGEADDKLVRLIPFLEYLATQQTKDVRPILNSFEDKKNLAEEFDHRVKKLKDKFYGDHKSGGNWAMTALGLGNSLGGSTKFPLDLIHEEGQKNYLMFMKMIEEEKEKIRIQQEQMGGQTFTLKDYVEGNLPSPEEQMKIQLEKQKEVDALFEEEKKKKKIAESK

T3: Tim50(1–370) (yeast) (UniProt Q02776)
T3 sequence: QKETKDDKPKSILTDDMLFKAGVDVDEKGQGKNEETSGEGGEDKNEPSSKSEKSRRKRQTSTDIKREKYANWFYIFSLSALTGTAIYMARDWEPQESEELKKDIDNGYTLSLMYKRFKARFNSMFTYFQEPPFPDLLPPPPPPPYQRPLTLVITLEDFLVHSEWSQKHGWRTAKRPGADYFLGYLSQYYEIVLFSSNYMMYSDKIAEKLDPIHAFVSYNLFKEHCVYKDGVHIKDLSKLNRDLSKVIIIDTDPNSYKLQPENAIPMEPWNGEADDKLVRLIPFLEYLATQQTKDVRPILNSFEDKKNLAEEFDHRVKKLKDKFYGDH

T4: TOM complex (yeast (endogenous in YPH499 mitochondria)) (UniProt P23644+P49334+P35180+P80967+P33448+P53507)
T4 sequence 1: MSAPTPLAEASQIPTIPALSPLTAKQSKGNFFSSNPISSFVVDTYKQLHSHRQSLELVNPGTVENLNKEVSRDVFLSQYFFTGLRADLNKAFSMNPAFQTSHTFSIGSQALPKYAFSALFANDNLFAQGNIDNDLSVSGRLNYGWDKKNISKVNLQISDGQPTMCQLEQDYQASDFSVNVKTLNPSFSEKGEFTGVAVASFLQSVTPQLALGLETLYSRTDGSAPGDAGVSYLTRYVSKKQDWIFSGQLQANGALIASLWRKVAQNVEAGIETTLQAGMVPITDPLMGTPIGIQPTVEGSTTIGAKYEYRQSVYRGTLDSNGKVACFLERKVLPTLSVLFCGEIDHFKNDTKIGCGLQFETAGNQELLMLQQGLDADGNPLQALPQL
T4 sequence 2: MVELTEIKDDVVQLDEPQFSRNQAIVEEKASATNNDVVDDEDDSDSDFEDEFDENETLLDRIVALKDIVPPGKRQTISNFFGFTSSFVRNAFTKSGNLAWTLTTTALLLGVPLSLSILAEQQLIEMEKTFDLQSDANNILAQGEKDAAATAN
T4 sequence 3: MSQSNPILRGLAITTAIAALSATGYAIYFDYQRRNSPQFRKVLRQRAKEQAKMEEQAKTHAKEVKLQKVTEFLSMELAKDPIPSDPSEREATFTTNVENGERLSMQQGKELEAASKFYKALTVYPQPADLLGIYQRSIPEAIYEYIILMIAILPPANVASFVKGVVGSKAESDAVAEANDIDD
T4 sequence 4: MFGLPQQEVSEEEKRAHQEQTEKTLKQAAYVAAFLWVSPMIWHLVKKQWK
T4 sequence 5: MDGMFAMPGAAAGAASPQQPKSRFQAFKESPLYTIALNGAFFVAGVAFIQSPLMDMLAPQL
T4 sequence 6: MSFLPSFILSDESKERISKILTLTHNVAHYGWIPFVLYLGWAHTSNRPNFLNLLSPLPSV

T5: Tim23 (yeast (endogenous in YPH499 mitochondria)) (UniProt P32897)
T5 sequence: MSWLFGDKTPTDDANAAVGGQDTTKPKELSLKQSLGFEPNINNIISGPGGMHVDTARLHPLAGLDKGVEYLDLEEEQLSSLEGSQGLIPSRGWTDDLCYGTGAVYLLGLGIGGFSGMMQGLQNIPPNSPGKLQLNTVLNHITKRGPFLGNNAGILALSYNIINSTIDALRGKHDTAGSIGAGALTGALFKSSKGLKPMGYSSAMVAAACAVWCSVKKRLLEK

B1: Tim23 (protein, UniProt P32897 1-222)
chain: T5 sequence
B2: Oxa1 precursor (protein, UniProt P39952 1-402)
chain: MFKLTSRLVTSRFAASSRLATARTIVLPRPHPSWISFQAKRFNSTGPNANDVSEIQTQLPSIDELTSSAPSLSASTSDLIANTTQTVGELSSHIGYLNSIGLAQTWYWPSDIIQHVLEAVHVYSGLPWWGTIAATTILIRCLMFPLYVKSSDTVARNSHIKPELDALNNKLMSTTDLQQGQLVAMQRKKLLSSHGIKNRWLAAPMLQIPIALGFFNALRHMANYPVDGFANQGVAWFTDLTQADPYLGLQVITAAVFISFTRLGGETGAQQFSSPMKRLFTILPIISIPATMNLSSAVVLYFAFNGAFSVLQTMILRNKWVRSKLKITEVAKPRTPIAGASPTENMGIFQSLKHNIQKARDQAERRQLMQDNEKKLQESFKEKRQNSKIKIVHKSNFINNKK
modifications: ^35S-methionine label
B3: Tim17 (protein, UniProt P39515 1-158)
chain: MSADHSRDPCPIVILNDFGGAFAMGAIGGVVWHGIKGFRNSPLGERGSGAMSAIKARAPVLGGNFGVWGGLFSTFDCAVKAVRKREDPWNAIIAGFFTGGALAVRGGWRHTRNSSITCACLLGVIEGVGLMFQRYAAWQAKPMAPPLPEAPSSQPLQA
B4: Tim50(1–370) (domain or fragment, UniProt Q02776 44-370)
chain: T3 sequence
B5: b2(1–167)-Tim50(366–476), IMS-targeted PBD of Tim50 (domain or fragment, UniProt P00175 81-167; Q02776 366-476)
chain: T1 sequence

Columns and labels:
[1] = molecular target: T1, b2(1–167)-Tim50(366–476), IMS-targeted PBD of Tim50 (yeast); test: co-IP; digitonin-solubilised mitochondria of 50FL and 50split cells (1% digitonin, 20 mM TRIS/HCl, 80 mM KCl, 10% glycerol, pH 8.0, 4°C); affinity-purified antibodies against Tim50N, Tim50C or Tim23 prebound to Protein A Sepharose; immunoblot
[2] = molecular target: T2, Tim50(1–476), full-length wild-type Tim50 (yeast); test: as above
Tim50(1–370) (yeast) [3] = molecular target: T3, Tim50(1–370) (yeast); test: as above
[4] = molecular target: T1, b2(1–167)-Tim50(366–476), IMS-targeted PBD of Tim50 (yeast); test: cross-linking; ^35S-labelled precursor imported into isolated 50FL and 50split mitochondria without membrane potential; 50 μM DFDNB, 30 min on ice; solubilised in 1% SDS, diluted in Triton X-100, immunoprecipitated with Tim50N or Tim50C antibodies; autoradiography
[5] = molecular target: T2, Tim50(1–476), full-length wild-type Tim50 (yeast); test: as above
Tim50(1–370) (yeast) [6] = molecular target: T3, Tim50(1–370) (yeast); test: as above
[7] = molecular target: T4, TOM complex (yeast (endogenous in YPH499 mitochondria)); test: native gel or EMSA; ^35S-labelled Oxa1 precursor imported at 25°C into 50FL and 50split mitochondria without membrane potential; 1% digitonin; BN-PAGE (4–16%) and autoradiography
[8] = molecular target: T5, Tim23 (yeast (endogenous in YPH499 mitochondria)); test: co-IP; digitonin-solubilised mitochondria of 50FL and 50split cells (1% digitonin, 20 mM TRIS/HCl, 80 mM KCl, 10% glycerol, pH 8.0, 4°C); affinity-purified antibodies against Tim50N, Tim50C or Tim23 prebound to Protein A Sepharose; immunoblot

| Binder | binding [1] | binding [2] | binding (Tim50(1–370) (yeast) [3]) | binding [4] | binding [5] | binding (Tim50(1–370) (yeast) [6]) | binding [7] | binding [8] |
| --- | --- | --- | --- | --- | --- | --- | --- | --- |
| B1 | no binding | binds | binds | – | – | – | – | – |
| B2 | – | – | – | no binding | binds | binds | binds | – |
| B3 | no binding | binds | binds | – | – | – | – | binds |
| B4 | no binding | – | – | – | – | – | – | binds |
| B5 | – | – | no binding | – | – | – | – | no binding |
